# Measurements: the supplement of paper PMC8728848
# The list shows a part of the results.
# Tests used:
# Test in all cases: glycan array binding signal (z-score within array); higher = stronger binding
# Details in all cases: glycan notation: IUPAC condensed, linker removed
# [1] = molecular target: Neu5Ac(a2-6)Gal(b1-4)GlcNAc(b1-2)Man(a1-3)[Man(a1-6)]Man(b1-4)GlcNAc(b1-4)GlcNAc
# Summary of the method: (§1)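 Negative Z-scores can be read as non-binding. The Z-score is calculated within each array and then averaged across arrays of one protein sequence at different concentrations or buffers and across linkers. Arrays, 3228 in all, were curated from the Consortium for Functional Glycomics database and kept only where the protein sequence was available.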
# [2] = molecular target: Neu5Ac(a2-6)Gal(b1-4)GlcNAc(b1-2)Man(a1-3)[Neu5Ac(a2-3)Gal(b1-4)GlcNAc(b1-2)Man(a1-6)]Man(b1-4)GlcNAc(b1-4)GlcNAc
# Summary of the method: as §1
# [3] = molecular target: Neu5Ac(a2-6)Gal(b1-4)GlcNAc(b1-2)Man(a1-3)[Neu5Ac(a2-6)Gal(b1-4)GlcNAc(b1-2)Man(a1-6)]Man(b1-4)GlcNAc(b1-4)GlcNAc
# Summary of the method: as §1
# [4] = molecular target: Neu5Ac(a2-6)Gal(b1-4)GlcNAc(b1-2)Man(a1-3)[Neu5Ac(a2-6)Gal(b1-4)GlcNAc(b1-2)Man(a1-6)]Man(b1-4)GlcNAc(b1-4)[Fuc(a1-6)]GlcNAc
# Summary of the method: as §1
# [5] = molecular target: Neu5Ac(a2-6)Gal(b1-4)GlcNAc(b1-2)Man(a1-6)Man(b1-4)GlcNAc(b1-4)GlcNAc
# Summary of the method: as §1
# [6] = molecular target: Neu5Ac(a2-6)Gal(b1-4)GlcNAc(b1-2)Man(a1-6)[Gal(b1-4)GlcNAc(b1-2)Man(a1-3)]Man(b1-4)GlcNAc(b1-4)GlcNAc
# Summary of the method: as §1
# [7] = molecular target: Neu5Ac(a2-6)Gal(b1-4)GlcNAc(b1-2)Man(a1-6)[GlcNAc(b1-2)Man(a1-3)]Man(b1-4)GlcNAc(b1-4)GlcNAc
# Summary of the method: as §1
# [8] = molecular target: Neu5Ac(a2-6)Gal(b1-4)GlcNAc(b1-2)Man(a1-6)[Man(a1-3)]Man(b1-4)GlcNAc(b1-4)GlcNAc
# Summary of the method: as §1
# [9] = molecular target: Neu5Ac(a2-6)Gal(b1-4)GlcNAc(b1-2)[Neu5Ac(a2-6)Gal(b1-4)GlcNAc(b1-4)]Man(a1-3)[GlcNAc(b1-4)][Neu5Ac(a2-6)Gal(b1-4)GlcNAc(b1-2)[Neu5Ac(a2-6)Gal(b1-4)GlcNAc(b1-6)]Man(a1-6)]Man(b1-4)GlcNAc(b1-4)GlcNAc
# Summary of the method: as §1
# [10] = molecular target: Neu5Ac(a2-6)Gal(b1-4)GlcNAc(b1-2)[Neu5Ac(a2-6)Gal(b1-4)GlcNAc(b1-4)]Man(a1-3)[GlcNAc(b1-4)][Neu5Ac(a2-6)Gal(b1-4)GlcNAc(b1-4)Man(a1-6)]Man(b1-4)GlcNAc(b1-4)GlcNAc
# Summary of the method: as §1
# [11] = molecular target: Neu5Ac(a2-6)Gal(b1-4)GlcNAc(b1-2)[Neu5Ac(a2-6)Gal(b1-4)GlcNAc(b1-6)]Man(a1-6)[Neu5Ac(a2-6)Gal(b1-4)GlcNAc(b1-2)Man(a1-3)][GlcNAc(b1-4)]Man(b1-4)GlcNAc(b1-4)GlcNAc
# Summary of the method: as §1
# [12] = molecular target: Neu5Ac(a2-6)Gal(b1-4)GlcNAc(b1-3)Gal(b1-3)GlcNAc
# Summary of the method: as §1
# [13] = molecular target: Neu5Ac(a2-6)Gal(b1-4)GlcNAc(b1-3)Gal(b1-4)GlcNAc
# Summary of the method: as §1
# [14] = molecular target: Neu5Ac(a2-6)Gal(b1-4)GlcNAc(b1-3)Gal(b1-4)GlcNAc(b1-2)Man(a1-3)[Neu5Ac(a2-6)Gal(b1-4)GlcNAc(b1-3)Gal(b1-4)GlcNAc(b1-2)Man(a1-6)]GalNAc
# Summary of the method: as §1
# [15] = molecular target: Neu5Ac(a2-6)Gal(b1-4)GlcNAc(b1-3)Gal(b1-4)GlcNAc(b1-3)Gal(b1-4)GlcNAc
# Summary of the method: as §1
# [16] = molecular target: Neu5Ac(a2-6)Gal(b1-4)GlcNAc(b1-3)Gal(b1-4)GlcNAc(b1-3)Gal(b1-4)GlcNAc(b1-2)Man(a1-3)[Neu5Ac(a2-6)Gal(b1-4)GlcNAc(b1-3)Gal(b1-4)GlcNAc(b1-3)Gal(b1-4)GlcNAc(b1-2)Man(a1-6)]GalNAc
# Summary of the method: as §1
# [17] = molecular target: Neu5Ac(a2-6)Gal(b1-4)GlcNAc(b1-3)Gal(b1-4)GlcNAc(b1-3)GalNAc
# Summary of the method: as §1
# [18] = molecular target: Neu5Ac(a2-6)Gal(b1-4)GlcNAc(b1-3)Gal(b1-4)GlcNAc(b1-3)[Neu5Ac(a2-6)Gal(b1-4)GlcNAc(b1-3)Gal(b1-4)GlcNAc(b1-6)]GalNAc
# Summary of the method: as §1
# [19] = molecular target: Neu5Ac(a2-6)Gal(b1-4)GlcNAc(b1-3)Gal(b1-4)GlcNAc(b1-6)[Gal(b1-3)]GalNAc
# Summary of the method: as §1
# [20] = molecular target: Neu5Ac(a2-6)Gal(b1-4)GlcNAc(b1-3)Gal(b1-4)[Fuc(a1-3)]GlcNAc(b1-3)Gal(b1-4)[Fuc(a1-3)]GlcNAc
# Summary of the method: as §1
# [21] = molecular target: Neu5Ac(a2-6)Gal(b1-4)GlcNAc(b1-3)GalNAc
# Summary of the method: as §1
# [22] = molecular target: Neu5Ac(a2-6)Gal(b1-4)GlcNAc(b1-3)[Neu5Ac(a2-6)Gal(b1-4)GlcNAc(b1-6)]GalNAc
# Summary of the method: as §1
# [23] = molecular target: Neu5Ac(a2-6)Gal(b1-4)GlcNAc(b1-6)GalNAc
# Summary of the method: as §1
# [24] = molecular target: Neu5Ac(a2-6)Gal(b1-4)GlcNAc(b1-6)[Gal(b1-3)GlcNAc(b1-3)]Gal(b1-4)Glc
# Summary of the method: as §1
# [25] = molecular target: Neu5Ac(a2-6)Gal(b1-4)GlcNAc(b1-6)[Gal(b1-3)]GalNAc
# Summary of the method: as §1
# [26] = molecular target: Neu5Ac(a2-6)Gal(b1-4)GlcNAc6S
# Summary of the method: as §1
# Neu5Ac(a2-6)GalNAc = molecular target: Neu5Ac(a2-6)GalNAc
# Summary of the method: as §1
# [27] = molecular target: Neu5Ac(a2-6)GalNAc(b1-4)GlcNAc
# Summary of the method: as §1
# [28] = molecular target: Neu5Ac(a2-6)GalNAc(b1-4)GlcNAc6S
# Summary of the method: as §1
# [29] = molecular target: Neu5Ac(a2-6)GlcNAc(b1-4)GlcNAc
# Summary of the method: as §1
binder,measurement,setting,value
Di AAL2 (Agrocybe aegerita) (protein) MTSNVITQDLPIPVASRGFADIVGFGLDGVVIGRNAVNLQPFLAVKNFAQNAGGWLTTKHVRLIADTTGTGKGDIVGFGNAGVYVSVNNGKNTFADPPKMVIANFGYDAGGWRVEKHLRYLADIRKIGRADIIGFGEKGVLVSRNNGGLNFGPATLVLKDFGYDAGGWRLDRHLRFLADVTGNGHLDIVGFGDKHVFISRNNGDGTFAPAKSVIDNFCIDAGGWKIGDHPRFVADLTGDGTADIIGCGKAGCWVALNNGGGVFGQVKLVINDFGTDKGWQAAKHPRFIADLTGNGRGDVVGFGNAGVYVALNNGDGTFQSAKLVLKDFGVQQGWTVSKHRRFVVDLTGDGCADIIGFGEKETLVSYNDGKGNFGPVKALTNDFSFSGGKWAPETTVCWMANLDSSRHPAPAPMTSNVITQDLPIPVASRGFADIVGFGLDGVVIGRNAVNLQPFLAVKNFAQNAGGWLTTKHVRLIADTTGTGKGDIVGFGNAGVYVSVNNGKNTFADPPKMVIANFGYDAGGWRVEKHLRYLADIRKIGRADIIGFGEKGVLVSRNNGGLNFGPATLVLKDFGYDAGGWRLDRHLRFLADVTGNGHLDIVGFGDKHVFISRNNGDGTFAPAKSVIDNFCIDAGGWKIGDHPRFVADLTGDGTADIIGCGKAGCWVALNNGGGVFGQVKLVINDFGTDKGWQAAKHPRFIADLTGNGRGDVVGFGNAGVYVALNNGDGTFQSAKLVLKDFGVQQGWTVSKHRRFVVDLTGDGCADIIGFGEKETLVSYNDGKGNFGPVKALTNDFSFSGGKWAPETTVCWMANLDSSRH,glycan array binding signal (z-score),[1],-0.328
same,glycan array binding signal (z-score),[2],-0.267
same,glycan array binding signal (z-score),[3],-0.269
same,glycan array binding signal (z-score),[4],-0.282
same,glycan array binding signal (z-score),[5],-0.327
same,glycan array binding signal (z-score),[6],-0.33
same,glycan array binding signal (z-score),[7],0.064
same,glycan array binding signal (z-score),[8],-0.329
same,glycan array binding signal (z-score),[9],-0.312
same,glycan array binding signal (z-score),[10],-0.301
same,glycan array binding signal (z-score),[11],-0.315
same,glycan array binding signal (z-score),[12],-0.261
same,glycan array binding signal (z-score),[13],-0.239
same,glycan array binding signal (z-score),[14],-0.119
same,glycan array binding signal (z-score),[15],-0.09
same,glycan array binding signal (z-score),[16],-0.101
same,glycan array binding signal (z-score),[17],-0.295
same,glycan array binding signal (z-score),[18],-0.219
same,glycan array binding signal (z-score),[19],-0.309
same,glycan array binding signal (z-score),[20],-0.307
same,glycan array binding signal (z-score),[21],-0.286
same,glycan array binding signal (z-score),[22],-0.251
same,glycan array binding signal (z-score),[23],-0.205
same,glycan array binding signal (z-score),[24],-0.311
same,glycan array binding signal (z-score),[25],-0.324
same,glycan array binding signal (z-score),[26],-0.155
same,glycan array binding signal (z-score),Neu5Ac(a2-6)GalNAc,-0.196
same,glycan array binding signal (z-score),[27],-0.285
same,glycan array binding signal (z-score),[28],-0.23
same,glycan array binding signal (z-score),[29],1.47
